According to paper PMC8437142 (The Journal of physiology, 2021):
Where a name gives a salt, the structure may show the parent alone.

Tested on: phospho-p38 MAPK
Conditions: microglia, C3-C5 ventral horn, ~4.5 hours post-drug injection; morphine 4 mg/kg

SMILES: CN1CC[C@]23c4c5ccc(O)c4O[C@H]2[C@@H](O)C=C[C@H]3[C@H]1C5 [Morphine, Morphine sulfate]
- increase in phospho-p38 MAPK intensity in CD11b-positive cells versus vehicle-treated controls: 23 ± 7%
